Source: the supplement of paper PMC9446081
The campaign covered roughly 39,000 compounds. About 220 (0.56%) showed activity. Some of the results follow.

Tested on: Escherichia coli K-12 BW25113
Assay: relative growth (OD600 normalised to plate interquartile mean) (fraction); higher = less growth inhibition, active = 0.2 or less
Conditions: 50 µM; LB; incubation time: overnight (16-24 h)
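Further: static incubation at 37 °C against the wild-type strain, values averaged over two biological replicates.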

Compound	relative growth
C=c1ccccc1=C1NN=C(CN2CCCC2)O1	inactive: 1.03
Cc1noc(C)c1S(=O)(=O)N(C)C[C@@H]1Oc2ccc(NC(=O)C3CC3)cc2CC(=O)N([C@@H](C)CO)C[C@H]1C	inactive: 0.968
C[C@@H]1CN([C@@H](C)CO)C(=O)c2cccc(NC(=O)Nc3ccc(F)cc3)c2O[C@H]1CN(C)Cc1ccc(-c2ccccc2)cc1	inactive: 0.968
Cc1ccc(S(=O)(=O)Nc2ccc3c(c2)C(=O)N([C@H](C)CO)C[C@@H](C)[C@H](CN(C)C(=O)Nc2ccccc2)OCCCC[C@@H](C)O3)cc1	inactive: 1.03
CCCOc1ccc(=O)n(C)n1	inactive: 0.927
CCCN(C)C[C@H]1OCCCC[C@H](C)Oc2ccc(NC(=O)Nc3ccc(OC)cc3)cc2C(=O)N([C@H](C)CO)C[C@@H]1C	inactive: 0.997
C[C@@H]1CN([C@H](C)CO)C(=O)c2cc(NC(=O)c3ccncc3)ccc2O[C@@H](C)CCCCO[C@@H]1CN(C)C(=O)C1CCCCC1	inactive: 1.01
C[C@H]1CN([C@@H](C)CO)C(=O)Cc2cc(NC(=O)Cc3cn(C)c4ccccc34)ccc2O[C@@H]1CN(C)C	inactive: 0.997
C[C@H]1CCCCO[C@H](CN(C)C(=O)Nc2ccc(C(F)(F)F)cc2)[C@@H](C)CN([C@@H](C)CO)C(=O)c2cc(NC(=O)Cc3ccccc3)ccc2O1	inactive: 1.02
C[C@@H]1CN([C@@H](C)CO)C(=O)c2cccc(NC(=O)Nc3ccc(F)cc3)c2O[C@H]1CN(C)S(C)(=O)=O	inactive: 0.995
C[C@@H]1CN([C@@H](C)CO)C(=O)c2cc(NC(=O)CCN3CCOCC3)ccc2O[C@@H]1CN(C)C(=O)Nc1ccc(F)cc1	inactive: 1
O=C(NCCO[N+](=O)[O-])c1cccnc1	inactive: 1.07
C[C@H]1CN([C@@H](C)CO)S(=O)(=O)c2ccc(-c3ccc(C(=O)N(C)C)cc3)cc2O[C@H]1CN(C)C(=O)C1CCOCC1	inactive: 1.03
Cc1ccc(S(=O)(=O)N(C)C[C@H]2OCCCC[C@@H](C)Oc3ccc(NC(=O)Nc4cccc5ccccc45)cc3C(=O)N([C@@H](C)CO)C[C@@H]2C)cc1	inactive: 1.03
C[C@H]1CN([C@@H](C)CO)C(=O)c2cc(C#Cc3cccc(F)c3)cnc2O[C@@H]1CN(C)Cc1ccccn1	inactive: 0.999
COc1ccc(S(=O)(=O)N(C)C[C@H]2Oc3cc(C#CC4CCCC4)ccc3S(=O)(=O)N([C@@H](C)CO)C[C@@H]2C)cc1	inactive: 1.04
O=C1CN(S(=O)(=O)Cc2ccccc2)C[C@@H]2[C@@H](c3ccc(C#Cc4cccc(F)c4)cc3)[C@@H](CO)N12	inactive: 0.997
C[C@H](CO)N1C[C@H](C)[C@@H](CN(C)S(=O)(=O)c2ccccc2)Oc2ccc(NC(=O)CCCN(C)C)cc2C1=O	inactive: 1.01
C[C@@H]1CN([C@H](C)CO)C(=O)c2cc(NC(=O)C3CC3)ccc2O[C@@H]1CN(C)S(=O)(=O)c1ccccc1	inactive: 0.987
Cc1ccc(S(=O)(=O)N[C@H](C(=O)NCCn2cc(CN3C(=O)COC[C@H]3c3ccccc3)nn2)C(C)C)cc1	inactive: 0.995
C[C@H](CO)N1C[C@H](C)[C@@H](CN(C)C(=O)CN(C)C)Oc2cc(C#Cc3ccc(F)cc3)ccc2S1(=O)=O	inactive: 1.01

Compound	relative growth
CN(C)CCN1CCO[C@@H]2CN(Cc3cnn(C)c3)C[C@@H]21	inactive: 1.01
COC(=O)c1ccc(C(=O)NN)cc1	inactive: 0.967
C[C@H]1CCCCO[C@@H](CN(C)C(=O)c2ccccc2)[C@@H](C)CN([C@@H](C)CO)C(=O)c2cc(NC(=O)Nc3ccc(F)cc3)ccc2O1	inactive: 1.03
COc1ccc(S(=O)(=O)N(C)C[C@H]2OCc3cn(nn3)CCCC(=O)N([C@@H](C)CO)C[C@@H]2C)cc1	inactive: 1
C[C@H]1CCCCO[C@@H](CN(C)C(=O)c2ccccc2)[C@@H](C)CN([C@@H](C)CO)C(=O)c2cc(NC(=O)Nc3ccc(C(F)(F)F)cc3)ccc2O1	inactive: 1
COC(=O)CNC(=O)C(=O)OC	inactive: 0.982
C[C@@H]1CCCCO[C@H](CN(C)Cc2ccc3c(c2)OCO3)[C@H](C)CN([C@@H](C)CO)C(=O)c2cc(NC(=O)c3ccccc3)ccc2O1	inactive: 0.996
C[C@H](CO)N1C[C@H](C)[C@@H](CN(C)Cc2ccc(C(F)(F)F)cc2)Oc2ccc(NC(=O)Nc3cccc4ccccc34)cc2C1=O	inactive: 0.988
Cc1noc(C)c1NC(=O)Nc1ccc2c(c1)C(=O)N([C@H](C)CO)C[C@H](C)[C@H](CN(C)C(=O)Nc1ccc(C(F)(F)F)cc1)OCCCC[C@@H](C)O2	inactive: 1.01
COc1ccc(S(=O)(=O)Nc2cccc3c2O[C@H](CN(C)C(=O)Nc2c(C)noc2C)[C@@H](C)CN([C@@H](C)CO)C3=O)cc1	inactive: 1.02
COc1ccc(NC(=O)N(C)C[C@H]2OCCCC[C@@H](C)Oc3ccc(NC(=O)Nc4ccc(F)cc4)cc3C(=O)N([C@H](C)CO)C[C@H]2C)cc1	inactive: 1.04
C[C@@H]1CN([C@@H](C)CO)C(=O)c2cc(C#CC3CCCCC3)cnc2O[C@@H]1CN(C)C(=O)c1ccncc1	inactive: 0.985
CCCNc1nc(=O)c(C)n[nH]1	inactive: 0.97
CC(=O)N1CCc2nc(N)sc2C1	inactive: 1
COCCN1CC[C@@H](CO)C1	inactive: 1
Nc1ncnc2nc(N3CCCCC3)[nH]c12	inactive: 1.01
Cl.Clc1ccc2c(c1)CCc1cccnc1C2=C1CCNCC1	inactive: 1.09
CCc1c(C)[nH]c2c(C#N)cnn2c1=O	inactive: 0.947
C[C@H]1CN([C@@H](C)CO)C(=O)c2cccc(NS(C)(=O)=O)c2O[C@@H]1CN(C)S(=O)(=O)c1ccc(F)cc1	inactive: 1
C[C@H]1CCCCO[C@H](CN(C)Cc2ccc3c(c2)OCO3)[C@@H](C)CN([C@@H](C)CO)C(=O)c2cc(NS(=O)(=O)c3cccs3)ccc2O1	inactive: 0.89
CN1CCN(C(=O)C[C@@H]2CC[C@@H]3[C@H](COc4ccc(NC(=O)C5CCOCC5)cc4C(=O)N3C)O2)CC1	inactive: 0.987
